Reference: PMC6783653
Results are given in words; binding and its absence hold for the method and conditions named. Binding seen in cells or lysates may run through a third protein. Some entries that bind do so weakly or less than the wild type. Sequences can lack the tags named with a protein.

Protein sequences, listed by entry. Tags and fused reporters are not part of them.
UniProt P13383: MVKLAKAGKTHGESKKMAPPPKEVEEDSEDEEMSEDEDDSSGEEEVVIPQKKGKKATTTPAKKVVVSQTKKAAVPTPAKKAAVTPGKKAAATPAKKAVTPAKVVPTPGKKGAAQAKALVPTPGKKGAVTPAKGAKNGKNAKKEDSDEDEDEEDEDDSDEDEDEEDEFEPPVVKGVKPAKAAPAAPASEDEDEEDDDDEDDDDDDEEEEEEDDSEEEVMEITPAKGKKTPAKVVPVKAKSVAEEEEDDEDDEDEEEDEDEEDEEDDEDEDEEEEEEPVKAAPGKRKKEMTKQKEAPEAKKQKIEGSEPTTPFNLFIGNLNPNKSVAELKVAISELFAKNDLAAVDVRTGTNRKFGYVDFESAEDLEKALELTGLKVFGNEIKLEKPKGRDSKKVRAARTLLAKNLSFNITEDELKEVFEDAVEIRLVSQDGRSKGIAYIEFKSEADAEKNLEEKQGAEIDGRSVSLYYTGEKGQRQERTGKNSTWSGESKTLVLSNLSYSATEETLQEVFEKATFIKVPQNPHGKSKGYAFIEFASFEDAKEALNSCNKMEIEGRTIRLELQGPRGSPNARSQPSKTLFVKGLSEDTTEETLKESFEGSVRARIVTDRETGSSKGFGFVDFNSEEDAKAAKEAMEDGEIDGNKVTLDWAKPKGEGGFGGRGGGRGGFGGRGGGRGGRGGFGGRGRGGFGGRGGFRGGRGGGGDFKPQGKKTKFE
UniProt P62630: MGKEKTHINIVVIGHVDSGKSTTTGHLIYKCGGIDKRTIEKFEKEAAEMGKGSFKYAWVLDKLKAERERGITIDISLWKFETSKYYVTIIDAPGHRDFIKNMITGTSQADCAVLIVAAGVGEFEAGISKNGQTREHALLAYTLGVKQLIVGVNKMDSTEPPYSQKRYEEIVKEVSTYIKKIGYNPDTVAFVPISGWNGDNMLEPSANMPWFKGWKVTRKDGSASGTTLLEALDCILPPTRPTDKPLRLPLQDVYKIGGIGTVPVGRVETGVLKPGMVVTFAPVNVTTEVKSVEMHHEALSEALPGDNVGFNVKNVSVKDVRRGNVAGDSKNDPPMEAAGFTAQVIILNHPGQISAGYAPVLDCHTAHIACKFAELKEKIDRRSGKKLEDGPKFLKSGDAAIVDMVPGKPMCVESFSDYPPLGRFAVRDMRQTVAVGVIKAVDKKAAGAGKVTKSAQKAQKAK

Legend:
Assay in all cases: pull-down; GST-TIP30 fragments of different length on glutathione agarose beads, Myc-tagged binding partners, 2 h at 4°C, washed with PBS, Western blot; no purification of the Myc-tagged partners is described; only the target purified
[1] = molecular target: T1, GST-TIP30 (full-length TIP30, GST fusion, bacterial) (rat) (UniProt B0BNF8)
T1 sequence: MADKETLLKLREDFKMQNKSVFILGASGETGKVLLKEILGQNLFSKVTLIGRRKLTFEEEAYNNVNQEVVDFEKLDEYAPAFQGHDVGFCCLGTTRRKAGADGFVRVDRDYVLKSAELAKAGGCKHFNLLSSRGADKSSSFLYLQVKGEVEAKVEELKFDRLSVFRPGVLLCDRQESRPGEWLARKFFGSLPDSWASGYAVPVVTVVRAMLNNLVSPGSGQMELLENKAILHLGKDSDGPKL

[2] = molecular target: T2, GST-TIP30 fragment, first N-terminal 230 amino acids (rat) (UniProt B0BNF8)
T2 sequence: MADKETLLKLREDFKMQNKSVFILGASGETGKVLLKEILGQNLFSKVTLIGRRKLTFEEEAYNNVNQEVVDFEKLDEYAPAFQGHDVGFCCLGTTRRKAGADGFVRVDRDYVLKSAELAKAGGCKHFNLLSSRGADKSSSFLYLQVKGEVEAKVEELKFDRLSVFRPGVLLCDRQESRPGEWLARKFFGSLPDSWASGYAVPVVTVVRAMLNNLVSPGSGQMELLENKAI

[3] = molecular target: T3, GST-TIP30 fragment, first 50 amino acids (rat) (UniProt B0BNF8)
T3 sequence: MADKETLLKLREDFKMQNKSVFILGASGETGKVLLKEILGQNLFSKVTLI

| binding [1] | binding [2] | binding [3] | Substance |
| --- | --- | --- | --- |
| binds | binds | – | Myc-tagged nucleolin (from UniProt P13383 1-713) |
| binds | – | binds | Myc-tagged eEF1A1 used in the GST-TIP30 fragment pull-down (from UniProt P62630 1-462) |
